Test results taken from ChEMBL document CHEMBL1201862, “PubChem BioAssay data set” (2004).

What follows are compounds tested on NCI-H322M (assay: NCI-60 cell line screen, 48 h).

Row | SMILES | GI50
1 | Cn1cc(-c2ccc(CCOC3CCCCO3)cc2)c2c(C#N)cccc21 (stereo not given) | inactive: > 100 µM
2 | CC(=O)n1nc(-c2ccccc2)n(/N=C/c2ccc([N+](=O)[O-])o2)c1=O | inactive: 1.67 µM
3 | COC(=O)C1=C(C(=O)OC)C2(C3C(SC)=CC(C)(C)CC3S1)N(Cc1ccccc1)CCN2Cc1ccccc1 (stereo not given) | inactive: 82 µM
4 | Cc1c2c(cc3c(=O)ccn(CCN(C)C)c13)c(=O)ccn2CCN(C)C | inactive: 6.76 µM
5 | CC(C)C1=CC(=O)C(C)(C2=NC(C)(C)CO2)c2ccccc21 (stereo not given) | inactive: > 100 µM
6 | C=C(C)[C@@H]1CCc2c(c(C)cc(O)c(=O)c2O)C1 | inactive: 3.72 µM
7 | N#Cc1nn(-c2ccc(Cl)cc2)c(=N)c2c(N)n3nc(-c4ccccc4)cc3nc12 | active: 1 µM
8 | [O-][S+](Nc1ccccc1)c1ccccc1Oc1ccccc1 (stereo not given) | inactive: 21.7 µM
9 | OC1(CCc2ccccc2)COC(C(F)(F)F)(C(F)(F)F)C1 (stereo not given) | inactive: > 100 µM
10 | O=C(C(O)c1cn(Cc2ccccc2)c2ccccc12)N1CCCCC1 (stereo not given) | inactive: > 100 µM
11 | O=C/C(=C(/Cl)c1ccc(O)cc1)c1ccccc1 | inactive: 36.8 µM
12 | CC[C@]1(Cc2ccc(OC)c(OC)c2)C=[N+]([O-])O[C@H](OC2CCCC2(c2ccccc2)c2ccccc2)[C@@H]1OC(=O)c1ccccc1 (stereo not given in full) | inactive: 11.1 µM
13 | Cc1ccc(S(=O)(=O)NC2CCCCO2)cc1 (stereo not given) | inactive: > 100 µM
14 | CCOC(=O)NC(=O)c1cn(CCCO)c(=O)[nH]c1=O | inactive: > 100 µM
15 | CC(C)=CC(=O)O[C@@H]1CC(C)(C)CC2C3=CCC4[C@]56CC[C@](O)(OC5)C(C)(C)C6CC[C@@]4(C)C3(C)CC[C@]21C(=O)O (stereo not given in full) | inactive: 89.5 µM
16 | O=C1/C(=C/c2ccncc2)C(n2cccc2)c2c(Br)sc(Br)c21 (stereo not given) | inactive: 2.36 µM
17 | CCCN(C(=O)c1ccccc1)C(C#N)c1ccc(C(C#N)N(CCC)C(=O)c2ccccc2)cc1 (stereo not given) | inactive: 55.8 µM
18 | N#CC(C#N)=C(N)/C(C#N)=C/c1ccc2[nH]ccc2c1 | inactive: > 100 µM
19 | NC(CCc1nc(-c2ccccc2)cs1)C(=O)O (stereo not given) | inactive: > 100 µM
20 | COC(=O)C1C=CN(N(C)C)C2=C1C(=O)c1c(O)cccc1C2=O (stereo not given) | inactive: 1.95 µM
21 | O=C(CC(=O)c1ccncc1)c1ccccc1 | inactive: 99.1 µM
22 | N#CC1(CCCI)CCCC1 | inactive: 13.1 µM
23 | CC1(C)C2CCC1(C)C(NC(=O)COCCOCC(N)=O)C2 (stereo not given) | inactive: > 100 µM
24 | COc1ccc(C2CC(c3c(O)ccc4ccccc34)=NN2C(C)=O)cc1OC (stereo not given) | inactive: 39 µM
25 | NC12CCC(CC1=O)C2 (stereo not given) | inactive: > 100 µM

Row | SMILES | GI50
26 | Cc1ccccc1NC(=O)C(=O)c1c(O)c2ccc(O)cc2oc1=O | inactive: > 100 µM
27 | CC(C)C(=O)NC(=S)Nc1ccc([N+](=O)[O-])cc1C#N | inactive: > 100 µM
28 | CCOC(=O)C(Cc1ccccc1)(Cc1ccc(O)cn1)NC(=O)c1ccccc1 (stereo not given) | inactive: 24.4 µM
29 | COc1cc2c(c(OC)c1)C(=O)C(=O)C(CC1(C)OCCCO1)=C2 | inactive: 14.6 µM
30 | CC(C)(C)c1ccc2c(c1)C#Cc1cc(C(C)(C)C)ccc1OCCCO2 | inactive: > 100 µM
31 | NC(=O)N1N=C2c3ccccc3OC[C@H]2[C@@H]1c1ccccc1 | inactive: 5.65 µM
32 | O=c1n(CC2CS2)c2ccccc2n1CC1CS1 (stereo not given) | inactive: > 100 µM
33 | CC(NC(C#N)CC12CC3CC(CC(C3)C1)C2)c1ccccc1 (stereo not given) | inactive: > 100 µM
34 | CN(C)P(=O)(/C(N)=N/Nc1ccc([N+](=O)[O-])cc1)N(C)C | inactive: > 100 µM
35 | CCN(CC)CCC(=O)N1C/C(=C/c2ccccc2)C(=O)/C(=C\c2ccccc2)C1 | inactive: 4.54 µM
36 | CN(C)c1c(C2OC(CO)C(O)C2O)c(=O)c1=O (stereo not given) | inactive: > 100 µM
37 | Cn1cc(NC(=O)[C@H]2CCC(N)=N2)cc1C(=O)NCCC(=N)N | inactive: > 100 µM
38 | Cc1nccn1S(=O)(=O)c1ccc(Br)cc1Br | inactive: 52.5 µM
39 | Oc1nnc2c(-c3ccccc3)n[nH]c2n1 | inactive: > 100 µM
40 | O=C1c2ccccc2-c2nc(-c3ccncc3)cc3c2c1nc1ccccc13 | inactive: 27.9 µM
41 | [N-]=[N+]=Nc1ccccc1-[n+]1noc([O-])c1Br | inactive: > 100 µM
42 | C[C@@]1(Br)C[C@@](C)(Cl)[C@@H](Br)CC1/C=C/Cl (stereo not given in full) | inactive: 19.5 µM
43 | CCCC(=O)OCOC(=O)N(C)/N=N/c1ccc(C(=O)OCC)cc1 | inactive: 32.5 µM
44 | c1ccc2c(c1)CC1COc3ccccc3C1O2 (stereo not given) | inactive: 53.8 µM
45 | CC1(C)OC2C(O)CN3CCS[C@H]3C2O1 (stereo not given in full) | inactive: > 100 µM
46 | Cc1ccc([S+]([O-])c2cccs2)cc1 (stereo not given) | inactive: > 100 µM
47 | Cc1c(O)nc(-n2[nH]c3c(c2=O)CCCC3)[nH]c1=O | inactive: > 100 µM
48 | Nc1nc2ncn(CC(O)CO)c2c(=S)[nH]1 (stereo not given) | inactive: > 100 µM
49 | CC(=O)NNc1nc(C)c(C(=O)/C=C/c2ccc(Cl)cc2)s1 | inactive: > 100 µM
50 | CC(NC1CCCC[C@H]1O)c1ccccc1 (stereo not given in full) | inactive: > 100 µM

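Cultured in 96-well plates, cells were exposed to test compound for 48 hours across five concentrations. Here, GI50 denotes the concentration required for 50% inhibition of growth.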 Calls of active or inactive are those of the source. Rule as the data show it: active = GI50 up to about 1.1 µM and inactive = higher.
